Data as given in paper PMC12136788.
This is one part of the list.

T1: UNK ZnF1-6 (called full-length) (human, UniProt Q9C0B0 30-357)
T1 sequence: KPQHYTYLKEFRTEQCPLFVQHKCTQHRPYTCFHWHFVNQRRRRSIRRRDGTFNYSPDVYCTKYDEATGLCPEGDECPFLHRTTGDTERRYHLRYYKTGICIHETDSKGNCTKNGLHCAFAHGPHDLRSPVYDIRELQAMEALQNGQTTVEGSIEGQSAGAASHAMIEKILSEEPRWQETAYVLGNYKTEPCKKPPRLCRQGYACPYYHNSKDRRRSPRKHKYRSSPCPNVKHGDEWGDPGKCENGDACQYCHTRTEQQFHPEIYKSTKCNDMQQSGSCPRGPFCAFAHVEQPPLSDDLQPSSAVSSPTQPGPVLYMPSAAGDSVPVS

B1: chr1:152579660:152579936:-|CDS|ENSG00000163202|control|control|control (ssRNA)
RNA: GGGAGUUCUACAGUCCGACGAUCGUACAGUGUCUGCCUCCAGCUUCCUCUGGCUGUGCCCCAAGCUCUGGGGGCUGUGGCCCUAGCUCCGAGGGCGGCUGCUUCCUGAACCACCACAGGCGCCACCACCGAUGCCGGCGCCAGCAACAGAGGAUUGAGCAUCA
B2: chr17:35724233:35724342:+|3pUTR|ENSG00000006125|msi1_unk|FALSE|overlapping (ssRNA)
RNA: GGGAGUUCUACAGUCCGACGAUCUCCUGGAGGCAGAGAUGCAGUUACCUACCCUAGCUUUUGAUGGGUUCUCUUACCUGUAGUAGCCUUAUCCCUGGUCAUUUGGAUUUUCAGUUUGCUUUUUUCUUUUUUUCCCCUCCAAACCAACAGAGGAUUGAGCAUCA
B3: chr19:10391132:10391550:-|three_prime_utr|ENSG00000105401|control|control|control (ssRNA)
RNA: GGGAGUUCUACAGUCCGACGAUCCCCCAGCUACCACCGCCACCUGCUUCCAGGCCCCUAUGUGCCCCUUUUCAGAAAACAGAUAGAUGCCAUCUCGCCCGCUCCUGACUUCCUCUACUUGCGCUGCUCGGCCCAGCCUGGGGGCAACAGAGGAUUGAGCAUCA
B4: chr16:2457226:2457327:+|3pUTR|ENSG00000162063|unk|total|mutant (ssRNA)
RNA: GGGAGUUCUACAGUCCGACGAUCCAAGCCAUCAGAAUGUUGAAAUGAGGGUGAAGAGCUCAGAUCCCUCUCUUUGGAAAGUUCCGCCUGGAAGCAGUUGGCCACACUGUGUGGAGGGCACCUCUCUGUCCCUUCCGUGUCUCACAACAGAGGAUUGAGCAUCA
B5: chr1:212686416:212686790:-|three_prime_utr|ENSG00000123685|control|control|control (ssRNA)
RNA: GGGAGUUCUACAGUCCGACGAUCUUGUGCAGAUCCAGCAUGGAGGCCACCCUCAGGAGUGACUUCUCAUCCACCCUGGCAGCUAGUAGGUUCUGCUGUUAUGCAGAGCCAUUUCCUCUAGAAUUUGGAUAAUAAAGAUGCUUACAACAGAGGAUUGAGCAUCA
B6: chr11:75587191:75587292:-|CDS|ENSG00000171533|unk|FALSE|unique (ssRNA)
RNA: GGGAGUUCUACAGUCCGACGAUCACAGCCUCCAAAGAAUCAAGGUCGUAUAGUCCCUGAACCUCUGAAGAAUCAAGUUCCUAUAGUCCCAGUGCCUCUGAAGGAUCAAGAUCCUCUGGUGCCAGUACCAGCAAAGGACCAAGGCAACAGAGGAUUGAGCAUCA
B7: chr17:76725537:76725647:-|CDS|ENSG00000070495|unk|total|mutant (ssRNA)
RNA: GGGAGUUCUACAGUCCGACGAUCUACUCAGUGAAGAUGAAGAUGAAAUACUACAUCGAGUACAUGGAGAGCACUCGAGAUGACCGUCCCCUUUACAUCUUUGACAGCAGCUAUGGUGAACACCCUAAAAGAAGGAAACUUUUGCAACAGAGGAUUGAGCAUCA
B8: ENSG00000070961:be:win_151|CDS|ENSG00000070961|bound_else_gene|NA|bound_elsewhere_windowed (ssRNA)
RNA: GGGAGUUCUACAGUCCGACGAUCGAAAGCUAUGGAGAUGUCUAUGGAAUUUGCACCAAAUUGAAAACAUCUCCCAAUGAAGGUUUAAGUGGAAACCCUGCAGAUUUAGAAAGAAGAGAAGCAGUGUUUGGAAAGAAUUUUAUACAACAGAGGAUUGAGCAUCA
B9: chr12:67313014:67313056:+|3pUTR|ENSG00000111530|msi1_unk|total|mutant (ssRNA)
RNA: GGGAGUUCUACAGUCCGACGAUCUUUUUGCCGCAUUUAUUUCAGAAAUGUGUAUUUCCAUAAUCCAGAGGUUGUAAAACCACCCGUGUUUCCGUGGUUACAGCAACAUUUGAAAUGGAAACUAAAAGUCCGGAUUUUAUGGAGCAACAGAGGAUUGAGCAUCA
B10: chr1:112912765:112912828:-|3pUTR|ENSG00000155380|msi1_unk|FALSE|overlapping (ssRNA)
RNA: GGGAGUUCUACAGUCCGACGAUCUUAAGGUUUGCAAAUUAAAAAGGGCCAGAAAAAUUUGGCACCAGGCAAACGAAUAAAGAUAGGAUUGGGAAAGAAGUUGCUAAGUGUGCUUAGUUUUAAUAAGUAAUUCCUUCUCUUUUUCAACAGAGGAUUGAGCAUCA
B11: chrX:101412715:101412817:+|CDS|ENSG00000126945|unk|total|mutant (ssRNA)
RNA: GGGAGUUCUACAGUCCGACGAUCGGGUAUGGAGGCUAUGAUGACUAUGGUGGCUAUAAUGAUGGAUAUGGCUUUGGGUCUGACCGAUUUGGAAGAGACCUCAAUUACUGUUUUUCAGGAAUGUCUGAUCACCGAUACGGAGAUCAACAGAGGAUUGAGCAUCA
B12: chrX:130625084:130625185:-|3pUTR|ENSG00000165675|msi1|total|mutant (ssRNA)
RNA: GGGAGUUCUACAGUCCGACGAUCAGUUCCUUUGAAUUUGUCAGUUCAUUCCUGGAAAAUCUUUUGAGUUAAAAUAAGGAUCCCCGGACAGCACCUCGAACUACAGGCCCUAAAGAGAAAUUGCCUCAAACCACAAGUGCUGUACAACAGAGGAUUGAGCAUCA
B13: chr8:80500255:80500365:+|CDS|ENSG00000205189|unk|total|mutant (ssRNA)
RNA: GGGAGUUCUACAGUCCGACGAUCGAAAAACCAAACUACAAAAAGAUUUAUUUAUAAUAUUCCACCUAAUAAUGAAACGAAUUCCGAAGAUUGCUCAGUAAUGCAGCCACCUGUUGCCUAUCCAGAAGAAAAUACACUACUCAUCAACAGAGGAUUGAGCAUCA
B14: chrX:40073105:40073212:-|CDS|ENSG00000183337|unk|FALSE|unique (ssRNA)
RNA: GGGAGUUCUACAGUCCGACGAUCCUACCAAGAUGCCCUGGGGUUGGGCAUGGUGCAUCCCAUGUUGAUACCACACACGCCCAUAGAGAUUACUAAAGAGGAGAAACCAGAGAGGAGAUCCCGGUCCCAUGAGAGAGCCCGUUACAACAGAGGAUUGAGCAUCA

molecular target: T1, UNK ZnF1-6 (called full-length); test: nsRBNS (natural sequence RNA bind-n-seq); RBNS binding buffer (assumed for nsRBNS): 25 mM Tris pH 7.5, 150 mM KCl, 3 mM MgCl2, 0.01% Triton X-100, 500 ug/ml BSA, 20 U/ml SUPERase-In, 4 C; UNK is unkempt and MSI1 is Musashi-1; names of the RNAs are library labels; protein concentration not given here; high values mean tight binding

For B1, which binding signal is on record?
The binding signal was 0.89 enrichment R.

With B2 as the binder, how does the binding signal read?
Its binding signal is 1.69 enrichment R.

B3 was tested. Which binding signal did it give?
Its binding signal is 1.18 enrichment R.

How did the binding signal turn out when B4 was run?
Its binding signal is 0.494 enrichment R.

B5 was tested. Which binding signal did it give?
Its binding signal is 0.63 enrichment R.

For B6, which binding signal is on record?
Its binding signal is 0.536 enrichment R.

Which binding signal does the source give for B7 here?
The binding signal was 0.508 enrichment R.

How did the binding signal turn out when B8 was run?
Its binding signal is 0.536 enrichment R.

How did the binding signal turn out when B9 was run?
Its binding signal is 0.291 enrichment R.

With B10 as the binder, how does the binding signal read?
The binding signal was 0.903 enrichment R.

Which binding signal does the source give for B11 here?
Its binding signal is 0.671 enrichment R.

B12 was tested. Which binding signal did it give?
Its binding signal is 0.496 enrichment R.

For B13, which binding signal is on record?
Its binding signal is 1.54 enrichment R.

How did the binding signal turn out when B14 was run?
The binding signal was 1.19 enrichment R.
